Source: patent US20230265183A1 (MABWELL SHANGHAI BIOSCIENCE, published 2023)
Substitutions are numbered along the chain they refer to. One block for each binder: values may come before it.

Key:
human Nectin-4 [1] = target: T1, human Nectin-4 (human, UniProt Q96NY8 32-510); test: cell-based or functional assay
T1 sequence (looked up): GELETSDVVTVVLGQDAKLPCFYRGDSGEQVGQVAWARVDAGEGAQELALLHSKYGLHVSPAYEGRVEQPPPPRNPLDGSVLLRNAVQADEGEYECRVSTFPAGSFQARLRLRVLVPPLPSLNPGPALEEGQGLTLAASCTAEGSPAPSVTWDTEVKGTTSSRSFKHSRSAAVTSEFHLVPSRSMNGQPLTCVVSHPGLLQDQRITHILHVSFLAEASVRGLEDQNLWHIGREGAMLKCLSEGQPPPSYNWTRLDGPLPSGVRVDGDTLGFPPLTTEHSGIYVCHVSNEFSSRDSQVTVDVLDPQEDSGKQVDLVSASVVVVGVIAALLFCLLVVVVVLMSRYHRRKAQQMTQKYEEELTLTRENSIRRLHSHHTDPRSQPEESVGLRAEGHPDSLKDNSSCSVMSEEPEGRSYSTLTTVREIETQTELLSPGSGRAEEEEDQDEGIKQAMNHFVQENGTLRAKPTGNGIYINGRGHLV

human Nectin-4 [2] = target: T1, human Nectin-4; test: FACS on BT474 cells
Description: The solutions of different concentrations were added to 384-well plates, 10 µl per well.
BT474 cells (breast cancer cells) expressing Nectin-4 on the cell surface were collected by centrifugation at 100 g at room temperature for 5 minutes, and then the cells were washed with PBS containing 0.5% BSA once and were centrifuged at 100 g at room temperature for 5 minutes. […] After incubation at 4° C. for 1 hour, fluorescently labeled goat anti-human IgG secondary antibody was added. After continued incubation at 4° C. for 1 hour, mean fluorescence readings of the cell populations were analyzed by a flow cytometer.
The experiment results of the binding of engineered humanized molecules of the present disclosure to BT474 cells by FACS assay are shown in panels 3B and 3C in FIG. 3 and Tables 6 and 7.

His-tagged human NECTIN4 = target: T2, His-tagged human NECTIN4 (human, UniProt Q96NY8 32-349); test: SPR (BIAcore S200), antigen on CAP chip, antibody as analyte, 1:1 fit
T2 construct: Antigen of the BIAcore assay; also called antigen; recombinant NECTIN4 protein; not shown: His tag
T2 sequence: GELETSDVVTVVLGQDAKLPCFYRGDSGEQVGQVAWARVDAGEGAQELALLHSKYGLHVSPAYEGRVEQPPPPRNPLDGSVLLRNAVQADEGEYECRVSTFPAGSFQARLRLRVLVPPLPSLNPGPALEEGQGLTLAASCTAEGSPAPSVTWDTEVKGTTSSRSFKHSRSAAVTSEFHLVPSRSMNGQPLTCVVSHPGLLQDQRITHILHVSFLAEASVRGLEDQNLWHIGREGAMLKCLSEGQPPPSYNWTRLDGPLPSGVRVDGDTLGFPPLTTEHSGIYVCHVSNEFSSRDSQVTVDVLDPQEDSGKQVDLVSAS
Description: Interactions between the antibodies and the antigen were measured using a BIAcore instrument S200 from GE. Referring to the instructions provided in Biotin Capture Kit from GE Healthcare, the analytical channel and the control sample channel on CAP sensor chip were first coupled with antigen i.e. His-tagged human NECTIN4, then samples containing antibodies (diluted 3-fold from an initial concentration of 20 nM respectively and solutions of each antibody of 8 concentrations were obtained totally, and the concentration 0.741 nM was set to be repeated) were allowed to flow through both the analytical channel and the sample channel, and the photoreactions upon antibody-antigen binding were measured. Association constant Kon and dissociation constant Koff and affinity constant KD of each antibody were finally obtained by instrument software fitting (1:1 binding mode) analysis.

human Nectin-4 [3] = target: T1, human Nectin-4; test: cell-based or functional assay; remark: listed apart in the source

- Endocytosis efficiency (%) (human Nectin-4 [1]): 52.5%
- EC50 (human Nectin-4 [2]): 56100 ng/mL
- Kd (His-tagged human NECTIN4): 0.96 nM
- koff (His-tagged human NECTIN4): 0.00115 s⁻¹
- kon (His-tagged human NECTIN4): 1.19e+06 M⁻¹ s⁻¹
B1: 42D20 hz11 (antibody)
heavy: QVQLQESGPGLVKPSETLSLTCTVSGFSLIDYGVSWIRQPPGKGLEWIGVIWGDGKIYYNSVLKSRVTISKDNSKSQVSLKLSSVTAADTAVYYCAKQGGLLFYAMDYWGQGTLVTVSSASTKGPSVFPLAPSSKSTSGGTAALGCLVLDYFPEPVTVSWNSGALTSGVHTFPAVLQSSGLYSLSSVVTVPSSSLGTQTYICNVNHKPSNTKVDKRV[sequence of human IgG1 Fc with K274L K370L (EU numbers) omitted]
light: DIVMTQSPDSLAVSLGERATINCKSSQSLLNSYSQKNYLAWYQQKPGQSPKLLIYFASTRESGVPDRFSGSGSETDFTLTISSLQAEDLAVYFCQQHYNTPFTFGAGTKLELKRTVAAPSVFIFPPSDEQLKSGTASVVCLLNNFYPREAKVQWKVDNALQSGNSQESVTEQDSKDSTYSLSSTLTLSKADYEKHKVYACEVTHQGLSSPVTKSFNRGEC
notes: Humanized

- EC50 (ng/ml), inhibition of proliferation of BT474 cells (human Nectin-4 [3]): 4.37 ng/mL
B2: 42D20 hz13-E (antibody, human IgG1, kappa)
heavy: B1 heavy
light: DIVMTQSPDSLAVSLGERATINCKSSQSLLNTYSQKNYLAWYQQKPGQSPKLLIYFASTRESGVPDRFSGSGSETDFTLTISSLQAEDLAVYFCQQHYNTPFTFGAGTKLELKRRTVAAPSVFIFPPSDEQLKSGTASVVCLLNNFYPREAKVQWKVDNALQSGNSQESVTEQDSKDSTYSLSSTLTLSKADYEKHKVYACEVTHQGLSSPVTKSFNRGEC
modifications: vcMMAE conjugated to the TECP-reduced antibody; residues not stated; DAR 4.0±1
- Percentage of cell killing at the highest concentration (human Nectin-4 [3]): 32.1%

- EC50 (ng/ml), inhibition of proliferation of BT474 cells (human Nectin-4 [3]): 4.41 ng/mL
B3: 42D20 hz11-E (antibody, human IgG1, kappa)
heavy: B1 heavy
light: B2 light with T32S
modifications: vcMMAE conjugated to the TECP-reduced antibody; residues not stated; DAR 4.0±1
- Percentage of cell killing at the highest concentration (human Nectin-4 [3]): 31.8%

- Endocytosis efficiency (%) (human Nectin-4 [1]): 53.8%
- Kd (His-tagged human NECTIN4): 0.904 nM
- koff (His-tagged human NECTIN4): 0.00108 s⁻¹
- kon (His-tagged human NECTIN4): 1.19e+06 M⁻¹ s⁻¹
B4: 42D20 hz13 (antibody)
heavy: B1 heavy
light: B1 light with S32T
notes: Humanized
